# According to PubChem BioAssay AID1508642 (National Center for Advancing Translational Sciences (NCATS), 2021):
# Screen size: about 43,000 compounds; about 200 (0.47%) were called active. Inconclusive results (about 12%) are left out. Calls come from the whole dose curve; as a rule, active = well fitted cell-killing curve with a large enough effect; inconclusive = small, poorly fitted or top-dose-only effect, or effect the other way; inactive = flat fitted curve, though single readings scatter. The list shows a part of the results.
# Assay: Cell viability qHTS assay in S16 Pmp22-F2sN cells; note: nearly all actives have a fitted effect of over 65% in size
# Settings: S16 Pmp22-F2sN Schwann cells (luciferase reporters placed in the Pmp22 gene) viability, CellTiter-Glo, 24 h; series mostly up to 57.5 µM; activity change, negative = cytotoxicity: at the top concentration
# How it was run: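 Luminescence from CellTiter-Glo, read by CCD camera after a 15 min room-temperature incubation, served as the viability signal. Reporter Schwann cells (S16 Pmp22-F2sN) had been treated with pin-transferred compounds for 24 h at 37C.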
# % is set by controls: 0 for no effect and ±100 for the full control effect; potency is the fitted concentration of half-maximal effect.
Compound,"activity change, negative = cytotoxicity",Potency
COc1ccc(NC(=O)Cn2cc(C(=O)c3ccccc3)c(=O)c3cc(OC)ccc32)c(OC)c1,inactive: 18.8%,–
O=C(O)CCC(=O)Nc1sc2c(c1C(=O)Nc1ccccc1)CCCCC2,inactive: 9.74%,–
Cc1ccsc1CN(C(=O)c1ccc(OCC(C)C)cc1)C1CCS(=O)(=O)C1 (configuration not stated),inactive: 0.998%,–
CC1(C)CC(=O)c2cc(C#N)c(=O)n(-c3ccc(Cl)cc3)c2C1,inactive: 0.485%,–
Cc1ccc(Sc2c(C)nn(C(=O)c3ccc(Cl)cc3)c2C)cc1,inactive: -6.22%,–
Cc1c(C(=O)OC(C)C)sc(NC(=O)C2c3ccccc3Oc3ccccc32)c1C(=O)OC(C)C,inactive: -20.5%,–
CCOC(=O)c1c(S(=O)(=O)N2CCCC(C(=O)Nc3ccc(C)cn3)C2)c(C)n(C)c1C (configuration not stated),inactive: 0.435%,–
Cc1ccc(-n2c3nc(=O)[nH]c(=O)c-3cc3c(C)nn(-c4ccccc4)c32)cc1C,inactive: 9.69%,–
CCOC(=O)c1cccc(NS(=O)(=O)c2cc(-c3cnc(C4CC4)o3)ccc2C)c1,–,active: 20 µM
Cc1ccc2oc(-c3cccc(NC(=O)Cc4ccc(Cl)cc4)c3)nc2c1,inactive: -2.57%,–
COc1ccc(-n2nc(C(=O)N3CCN(c4ccccc4OC)CC3)c3c4ccccc4n(C)c3c2=O)cc1Cl,inactive: 20.6%,–
CC(=O)N1CCOc2cc(S(=O)(=O)NCc3ccc(F)cc3)c(C)cc21,inactive: -15.7%,–
O=C(NC1CCCc2ccccc21)c1ccc2c(c1)sc1nc(-c3ccccc3)cn12 (configuration not stated),inactive: 2%,–
CC(C)C1N=C2c3ccccc3N=C(SCC(=O)NCc3ccc(Cl)cc3)N2C1=O (configuration not stated),inactive: 19%,–
CCOc1ccc(NC(=O)Cn2ccn3nc(-c4ccc(OC)c(OC)c4)cc3c2=O)cc1,inactive: -1.2%,–
Cc1nc(N2CCCC2)c2c(C(=O)Nc3cccc(Cl)c3)c(C)oc2n1,inactive: -3.53%,–
CCCS(=O)(=O)c1nc(S(=O)(=O)c2ccc(C)cc2)c(NCc2ccccc2Cl)s1,inactive: -14.1%,–
CCOc1ccccc1NC(=O)C1CCN(S(=O)(=O)c2cccs2)CC1,inactive: 16.2%,–
CC(CNC(=O)CCc1cn(Cc2ccccc2Cl)c2ccccc12)c1ccccc1 (configuration not stated),inactive: 7.14%,–
COc1cccc(Oc2nc(C)nc3c2oc2ccccc23)c1,inactive: 0.862%,–
Cc1c(C(=O)NCc2cccc(Cl)c2)sc2nc[nH]c(=O)c12,inactive: -3.72%,–
O=C(Cn1cnc(S(=O)(=O)N2CCCC2)c1)Nc1cccc(Br)c1,inactive: -1.69%,–
Cc1cc(-c2nc3ncccc3o2)ccc1NC(=O)c1ccccc1Br,inactive: 7.01%,–
CCCCOc1cccc(C(=O)N(Cc2ccc(N(C)C)cc2)C2CCS(=O)(=O)C2)c1 (configuration not stated),inactive: -22.8%,–
COc1ccc(CCNC(=O)Cn2c(=O)n(-c3ccccc3)c(=O)c3c(C)c(C)sc32)cc1OC,inactive: 7.75%,–

Compound,"activity change, negative = cytotoxicity",Potency
O=C(COc1ccc(F)cc1)NCC(c1ccc(Cl)cc1)N1CCCCC1 (configuration not stated),inactive: 0.137%,–
Cc1ccc(CCNC(=O)CCCn2c(=O)c3ccccc3n(Cc3ccccc3C)c2=O)cc1,inactive: -5.35%,–
CCOC(=O)c1ccc(NC(=O)CSc2nnc3c4ccccc4n(CC)c3n2)cc1,inactive: 9.92%,–
COc1ccc(Cn2c(C(=O)O)c(CNCc3ccco3)c3ccc(OC)cc32)cc1,inactive: -11%,–
O=C(CSc1c2c(nc3ccccc13)CCC2)Nc1ccc(F)cc1,inactive: 22.3%,–
COc1ccc(-n2cnc3cc(C(=O)NC4CCCC4)ccc32)cc1,inactive: 0.503%,–
CN(C)c1ccc(CNC(=O)c2ccc(Cn3c(=O)c4cccn4c4cccnc43)cc2)cc1,inactive: 10.7%,–
COCCCNC(=O)CCCn1c(SCC(=O)c2ccc(F)cc2)nc2c(sc3ccccc32)c1=O,inactive: 1.76%,–
COC(=O)c1ccccc1NC(=O)c1cnc(Nc2ccc(OC)cc2)c2ccccc12,inactive: 1.64%,–
Cc1ccc(Cn2c(CNC(=O)CCc3ccccc3)nc3cccnc32)cc1,inactive: -3.57%,–
Cc1cccc(N2CCN(Cc3nnc(-c4ccccc4C)o3)CC2C)c1 (configuration not stated),inactive: 7.85%,–
COc1ccc(C2=Nc3ccc(F)cc3NC(c3cccc(C(F)(F)F)c3)=N2)cc1,inactive: -6.11%,–
CCCOc1ccc(C(=O)N(Cc2ccccc2Cl)C2CCS(=O)(=O)C2)cc1 (configuration not stated),inactive: 1.74%,–
Cc1cccc(C)c1NC(=O)c1ccc2c(c1)N(Cc1cccc(Cl)c1)C(=O)c1ccccc1S2=O (configuration not stated),inactive: -0.994%,–
CCOC(=O)c1ccc(NC(=O)Cn2nc(SC)c(S(=O)(=O)c3ccc(Cl)cc3)c2N)cc1,inactive: -8.2%,–
CC(C)CC(=O)Nc1nnc(S(=O)(=O)N2CCCCCC2)s1,inactive: -1.25%,–
CCOc1ccc(C(=O)Nc2cc(NC(=O)c3ccco3)ccc2OC)cc1Br,inactive: 3.76%,–
Cc1ccc(CCNC(=O)CCN2N=C(c3ccc(C)cc3)CCC2=O)cc1,inactive: 3.65%,–
COc1ccc(CCC(=O)NCc2ccc3c(c2)CCN3C(=O)c2ccc(F)cc2)cc1,inactive: -1.18%,–
Cc1ccsc1CCN1C(=O)N(c2ccccc2)C(=O)C1CC(=O)Nc1ccc(F)cc1 (configuration not stated),inactive: -5.6%,–
COc1ccc(-c2nc3cc(NC(=O)Cc4ccc(Cl)cc4)ccc3o2)cc1OC,inactive: 7.44%,–
Cc1ccc(Cl)cc1Nc1nc2ccccc2c2nncn12,inactive: 4.04%,–
Cc1nc(C)c(-c2ccc(SCC(=O)Nc3ccc(Cl)c(Cl)c3)nn2)s1,inactive: -0.381%,–
COc1ccccc1NC(=O)N1c2ccccc2Sc2ccccc21,inactive: -22.9%,–
COc1ccc(OC)c(-n2nnc3c(sc4nc(C)c(Br)c(C)c43)c2=O)c1,inactive: 0.116%,–

Compound,"activity change, negative = cytotoxicity",Potency
Cc1ccc(C(=O)N(Cc2sccc2C)C2CCS(=O)(=O)C2)cc1 (configuration not stated),inactive: 6.09%,–
Cc1ccc(Cn2c(=O)n(Cc3ccco3)c(=O)c3sc4ccccc4c32)cc1,inactive: 14.4%,–
O=c1c2cnn(-c3ccc(Cl)cc3)c2ncn1Cc1ccc(Cl)cc1Cl,inactive: -3.36%,–
Cc1nc2c(C(=O)NCc3ccccc3)cnn2c(C)c1Cc1ccc(F)cc1,inactive: -2.53%,–
CC1=C(C(=O)Nc2ccccc2)C(c2cccnc2)n2nc(SCc3ccccc3F)nc2N1 (configuration not stated),inactive: -2.13%,–
O=c1c2sc3ccccc3c2n(Cc2ccccc2F)c(=O)n1Cc1ccccc1,inactive: -9.73%,–
CCC(CC)C(=O)Nc1cc(-c2cccc(C)c2)nn1-c1ccccc1,inactive: 17.6%,–
COc1ccc(Cl)cc1NC(=O)c1cc(C)nc2c1c(C)nn2-c1ccccc1,inactive: 2.22%,–
COc1cccc(CNC(=O)C2CCN(C(=O)N3CCOc4ccc(Cl)cc43)CC2)c1OC,inactive: -23.3%,–
O=C(CC1N=C2c3ccccc3N=C(SCc3ccccc3F)N2C1=O)NCCc1ccccc1 (configuration not stated),inactive: -27.1%,–
Cc1cccc(C(=O)Nc2cc3c(cc2N2CCCCC2)n(C)c(=O)c(=O)n3C)c1,inactive: 8.2%,–
CC(=O)N1CCC2(CC1)OC(=O)C(C)=C2C(=O)Nc1cccc(Cl)c1C,inactive: -0.0034%,–
CCCCC(=O)Nc1cc(C)c(O)c(-c2nc3ncccc3o2)c1,inactive: 6.5%,–
CCCCN(C)CCNC(=O)c1c(C)oc2ncnc(N3CCOCC3)c12,inactive: 1.93%,–
Cc1cccc(NC(=O)Cn2c(=O)n(CCC(C)C)c(=O)c3cccnc32)c1,inactive: -13.4%,–
Cc1ccc(NC(=O)c2cnn(-c3ccc(C)c(C)c3)c2C2CCN(C(=O)OC(C)(C)C)CC2)c(C)c1,inactive: 3.73%,–
CC(NC(=O)c1ccc2c(c1)N(Cc1cccc(F)c1)C(=O)c1ccccc1S2)c1ccccc1 (configuration not stated),inactive: 8.93%,–
Cc1ccc(-n2c(=O)c3c(c4cc(C)ccc4n3C)n(CC(=O)Nc3c(C)cccc3C)c2=O)cc1,inactive: 1.77%,–
O=C(CCSCCc1ccccn1)Nc1cc(F)ccc1F,inactive: 9.29%,–
Cc1ccc(-n2nc(C(=O)N3CCN(c4cccc(C(F)(F)F)c4)CC3)c(=O)n(C)c2=O)cc1,inactive: -24.3%,–
Cc1ccc(CNc2ccc(-c3nc(C(C)C)no3)cc2[N+](=O)[O-])cc1,inactive: 9.02%,–
COc1cc(NC(=O)CN2C(=O)C(c3ccc(C)cc3)=NC23CCCCC3)cc(OC)c1,inactive: -24.6%,–
Cc1cccc(N2CCN(C(=O)c3cc4c(=O)oc5ccccc5c4s3)CC2C)c1 (configuration not stated),inactive: 3.98%,–
Cc1ccc(NS(=O)(=O)c2ccc3c(c2)NC(=O)C(C)C(=O)N3)cc1F (configuration not stated),inactive: -1.68%,–
Cc1ccc(NC(=O)CSc2cc(=O)n(C)c3ccc(Cl)cc23)c(Br)c1,inactive: 1.12%,–

Compound,"activity change, negative = cytotoxicity",Potency
COc1ccc(CNS(=O)(=O)c2cc3c(cc2C)n(C)c(=O)c(=O)n3C)cc1,inactive: 9.93%,–
COc1cccc(NC(=O)c2nn(-c3ccc(C)cc3)c(=O)n(C)c2=O)c1,inactive: 2.97%,–
CC(C)CN(CC(C)C)C(=O)C1CCCN(S(=O)(=O)c2ccc3c(c2)oc(=O)n3C)C1 (configuration not stated),inactive: -5.81%,–
Cc1cc(C)c2nc(N3CCCC(C(=O)NCc4cccc(Cl)c4)C3)sc2c1 (configuration not stated),inactive: 10.4%,–
Cc1ccc(-c2nc3cc(NC(=O)c4cc5ccccc5o4)ccc3o2)cc1,inactive: 0.841%,–
Cc1ccc2c(CC(=O)Nc3cccc(Cl)c3C)coc2c1,inactive: -15.5%,–
Cn1c(=O)n(C/C=C/c2ccccc2)c(=O)c2c1nc1n2CCN1c1ccc(F)cc1,inactive: -0.581%,–
COc1ccc(S(=O)(=O)NCCc2sc(C)nc2C)cc1F,inactive: -13.1%,–
Cc1cccc(OCCCCn2c(C3CC(=O)N(c4ccccc4Cl)C3)nc3ccccc32)c1 (configuration not stated),inactive: 20.7%,–
COc1ccc(C(=O)CC2(O)C(=O)Nc3c(C)cccc32)c(OC)c1OC (configuration not stated),inactive: 1.2%,–
CCOc1ccc(-n2c(SCC(=O)Nc3cccc(Cl)c3)nc3c(oc4ccccc43)c2=O)cc1,inactive: 24.8%,–
CCOc1ccc(-c2cnc(NCc3ccc(C(F)(F)F)cc3)n2C)cc1,inactive: -11.9%,–
CN1CCN(c2ncc3c(n2)CCN(Cc2cc(Br)cs2)C3)CC1,inactive: -0.0301%,–
CCN1C(=O)c2ccccc2Sc2ccc(NC(=O)COc3ccc(Cl)cc3)cc21,inactive: -21.6%,–
Cc1cccc(OCC(=O)NC(Cc2c[nH]c3ccccc23)C(=O)O)c1C (configuration not stated),inactive: 0.291%,–
COc1ccc(CCNC(=O)C(=O)NCC(c2ccc3c(c2)OCO3)N2CCOCC2)cc1 (configuration not stated),inactive: -16.5%,–
CCc1nonc1NC(=O)c1oc2ccc(F)cc2c1C,inactive: 10.3%,–
O=C(Nc1cc(F)ccc1F)N1CCC(CN2CCOCC2)CC1,inactive: -0.296%,–
COc1ccc(-n2cc(-c3ccccc3)c3c(NC4CCCCC4)ncnc32)cc1,inactive: -22.2%,–
Cc1ccccc1C(=O)N(Cc1ccc(N(C)C)cc1)Cc1ccco1,inactive: -6.37%,–
CN(C)c1ccc(CN(CC2CCCO2)C(=O)COc2ccccc2Cl)cc1 (configuration not stated),inactive: -8.65%,–
COc1ccccc1CNC(=O)Cc1c(C)c2c(cc(C)c3c(C)coc32)oc1=O,inactive: 18.3%,–
